First the molecules themselves.
B1: ppc L178Q (protein)
chain: MNEQYSALRSNVSMLGKVLGETIKDALGEHILERVETIRKLSKSSRAGNDANRQELLTTLQNLSNDELLPVARAFSQFLNLANTAEQYHSISPKGEAASNPEVIARTLRKLKNQPELSEDTIKKAVESLSLELVLTAHPTEITRRTLIHKMVEVNACLKQLDNKDIADYEHNQLMRRQRQLIAQSWHTDEIRKLRPSPVDEAKWGFAVVENSLWQGVPNYLRELNEQLEENLGYKLPVEFVPVRFTSWMGGDRDGNPNVTADITRHVLLLSRWKATDLFLKDIQVLVSELSMVEATPELLALVGEEGAAEPYRYLMKNLRSRLMATQAWLEARLKGEELPKPEGLLTQNEELWEPLYACYQSLQACGMGIIANGDLLDTLRRVKCFGVPLVRIDIRQESTRHTEALGELTRYLGIGDYESWSEADKQAFLIRELNSKRPLLPRNWQPSAETREVLDTCQVIAEAPQGSIAAYVISMAKTPSDVLAVHLLLKEAGIGFAMPVAPLFETLDDLNNANDVMTQLLNIDWYRGLIQGKQMVMIGYSDSAKDAGVMAASWAQYQAQDALIKTCEKAGIELTLFHGRGGSIGRGGAPAHAALLSQPPGSLKGGLRVTEQGEMIRFKYGLPEITVSSLSLYTGAILEANLLPPPEPKESWRRIMDELSVISCDVYRGYVRENKDFVPYFRSATPEQELGKLPLGSRPAKRRPTGGVESLRAIPWIFAWTQNRLMLPAWLGAGTALQKVVEDGKQSELEAMCRDWPFFSTRLGMLEMVFAKADLWLAEYYDQRLVDKALWPLGKELRNLQEEDIKVVLAIANDSHLMADLPWIAESIQLRNIYTDPLNVLQAELLHRSRQAEKEGQEPDPRVEQALMVTIAGIAAGMRNTG
B2: ppc L778A (protein)
chain: MNEQYSALRSNVSMLGKVLGETIKDALGEHILERVETIRKLSKSSRAGNDANRQELLTTLQNLSNDELLPVARAFSQFLNLANTAEQYHSISPKGEAASNPEVIARTLRKLKNQPELSEDTIKKAVESLSLELVLTAHPTEITRRTLIHKMVEVNACLKQLDNKDIADYEHNQLMRRLRQLIAQSWHTDEIRKLRPSPVDEAKWGFAVVENSLWQGVPNYLRELNEQLEENLGYKLPVEFVPVRFTSWMGGDRDGNPNVTADITRHVLLLSRWKATDLFLKDIQVLVSELSMVEATPELLALVGEEGAAEPYRYLMKNLRSRLMATQAWLEARLKGEELPKPEGLLTQNEELWEPLYACYQSLQACGMGIIANGDLLDTLRRVKCFGVPLVRIDIRQESTRHTEALGELTRYLGIGDYESWSEADKQAFLIRELNSKRPLLPRNWQPSAETREVLDTCQVIAEAPQGSIAAYVISMAKTPSDVLAVHLLLKEAGIGFAMPVAPLFETLDDLNNANDVMTQLLNIDWYRGLIQGKQMVMIGYSDSAKDAGVMAASWAQYQAQDALIKTCEKAGIELTLFHGRGGSIGRGGAPAHAALLSQPPGSLKGGLRVTEQGEMIRFKYGLPEITVSSLSLYTGAILEANLLPPPEPKESWRRIMDELSVISCDVYRGYVRENKDFVPYFRSATPEQELGKLPLGSRPAKRRPTGGVESLRAIPWIFAWTQNRLMLPAWLGAGTALQKVVEDGKQSELEAMCRDWPFFSTRLGMLEMVFAKADLWAAEYYDQRLVDKALWPLGKELRNLQEEDIKVVLAIANDSHLMADLPWIAESIQLRNIYTDPLNVLQAELLHRSRQAEKEGQEPDPRVEQALMVTIAGIAAGMRNTG
B3: ppc I461Q (protein)
chain: MNEQYSALRSNVSMLGKVLGETIKDALGEHILERVETIRKLSKSSRAGNDANRQELLTTLQNLSNDELLPVARAFSQFLNLANTAEQYHSISPKGEAASNPEVIARTLRKLKNQPELSEDTIKKAVESLSLELVLTAHPTEITRRTLIHKMVEVNACLKQLDNKDIADYEHNQLMRRLRQLIAQSWHTDEIRKLRPSPVDEAKWGFAVVENSLWQGVPNYLRELNEQLEENLGYKLPVEFVPVRFTSWMGGDRDGNPNVTADITRHVLLLSRWKATDLFLKDIQVLVSELSMVEATPELLALVGEEGAAEPYRYLMKNLRSRLMATQAWLEARLKGEELPKPEGLLTQNEELWEPLYACYQSLQACGMGIIANGDLLDTLRRVKCFGVPLVRIDIRQESTRHTEALGELTRYLGIGDYESWSEADKQAFLIRELNSKRPLLPRNWQPSAETREVLDTCQVQAEAPQGSIAAYVISMAKTPSDVLAVHLLLKEAGIGFAMPVAPLFETLDDLNNANDVMTQLLNIDWYRGLIQGKQMVMIGYSDSAKDAGVMAASWAQYQAQDALIKTCEKAGIELTLFHGRGGSIGRGGAPAHAALLSQPPGSLKGGLRVTEQGEMIRFKYGLPEITVSSLSLYTGAILEANLLPPPEPKESWRRIMDELSVISCDVYRGYVRENKDFVPYFRSATPEQELGKLPLGSRPAKRRPTGGVESLRAIPWIFAWTQNRLMLPAWLGAGTALQKVVEDGKQSELEAMCRDWPFFSTRLGMLEMVFAKADLWLAEYYDQRLVDKALWPLGKELRNLQEEDIKVVLAIANDSHLMADLPWIAESIQLRNIYTDPLNVLQAELLHRSRQAEKEGQEPDPRVEQALMVTIAGIAAGMRNTG
B4: ppc I461W (protein)
chain: MNEQYSALRSNVSMLGKVLGETIKDALGEHILERVETIRKLSKSSRAGNDANRQELLTTLQNLSNDELLPVARAFSQFLNLANTAEQYHSISPKGEAASNPEVIARTLRKLKNQPELSEDTIKKAVESLSLELVLTAHPTEITRRTLIHKMVEVNACLKQLDNKDIADYEHNQLMRRLRQLIAQSWHTDEIRKLRPSPVDEAKWGFAVVENSLWQGVPNYLRELNEQLEENLGYKLPVEFVPVRFTSWMGGDRDGNPNVTADITRHVLLLSRWKATDLFLKDIQVLVSELSMVEATPELLALVGEEGAAEPYRYLMKNLRSRLMATQAWLEARLKGEELPKPEGLLTQNEELWEPLYACYQSLQACGMGIIANGDLLDTLRRVKCFGVPLVRIDIRQESTRHTEALGELTRYLGIGDYESWSEADKQAFLIRELNSKRPLLPRNWQPSAETREVLDTCQVWAEAPQGSIAAYVISMAKTPSDVLAVHLLLKEAGIGFAMPVAPLFETLDDLNNANDVMTQLLNIDWYRGLIQGKQMVMIGYSDSAKDAGVMAASWAQYQAQDALIKTCEKAGIELTLFHGRGGSIGRGGAPAHAALLSQPPGSLKGGLRVTEQGEMIRFKYGLPEITVSSLSLYTGAILEANLLPPPEPKESWRRIMDELSVISCDVYRGYVRENKDFVPYFRSATPEQELGKLPLGSRPAKRRPTGGVESLRAIPWIFAWTQNRLMLPAWLGAGTALQKVVEDGKQSELEAMCRDWPFFSTRLGMLEMVFAKADLWLAEYYDQRLVDKALWPLGKELRNLQEEDIKVVLAIANDSHLMADLPWIAESIQLRNIYTDPLNVLQAELLHRSRQAEKEGQEPDPRVEQALMVTIAGIAAGMRNTG
B5: ppc I461A (protein)
chain: MNEQYSALRSNVSMLGKVLGETIKDALGEHILERVETIRKLSKSSRAGNDANRQELLTTLQNLSNDELLPVARAFSQFLNLANTAEQYHSISPKGEAASNPEVIARTLRKLKNQPELSEDTIKKAVESLSLELVLTAHPTEITRRTLIHKMVEVNACLKQLDNKDIADYEHNQLMRRLRQLIAQSWHTDEIRKLRPSPVDEAKWGFAVVENSLWQGVPNYLRELNEQLEENLGYKLPVEFVPVRFTSWMGGDRDGNPNVTADITRHVLLLSRWKATDLFLKDIQVLVSELSMVEATPELLALVGEEGAAEPYRYLMKNLRSRLMATQAWLEARLKGEELPKPEGLLTQNEELWEPLYACYQSLQACGMGIIANGDLLDTLRRVKCFGVPLVRIDIRQESTRHTEALGELTRYLGIGDYESWSEADKQAFLIRELNSKRPLLPRNWQPSAETREVLDTCQVAAEAPQGSIAAYVISMAKTPSDVLAVHLLLKEAGIGFAMPVAPLFETLDDLNNANDVMTQLLNIDWYRGLIQGKQMVMIGYSDSAKDAGVMAASWAQYQAQDALIKTCEKAGIELTLFHGRGGSIGRGGAPAHAALLSQPPGSLKGGLRVTEQGEMIRFKYGLPEITVSSLSLYTGAILEANLLPPPEPKESWRRIMDELSVISCDVYRGYVRENKDFVPYFRSATPEQELGKLPLGSRPAKRRPTGGVESLRAIPWIFAWTQNRLMLPAWLGAGTALQKVVEDGKQSELEAMCRDWPFFSTRLGMLEMVFAKADLWLAEYYDQRLVDKALWPLGKELRNLQEEDIKVVLAIANDSHLMADLPWIAESIQLRNIYTDPLNVLQAELLHRSRQAEKEGQEPDPRVEQALMVTIAGIAAGMRNTG
B6: ppc I461P (protein)
chain: MNEQYSALRSNVSMLGKVLGETIKDALGEHILERVETIRKLSKSSRAGNDANRQELLTTLQNLSNDELLPVARAFSQFLNLANTAEQYHSISPKGEAASNPEVIARTLRKLKNQPELSEDTIKKAVESLSLELVLTAHPTEITRRTLIHKMVEVNACLKQLDNKDIADYEHNQLMRRLRQLIAQSWHTDEIRKLRPSPVDEAKWGFAVVENSLWQGVPNYLRELNEQLEENLGYKLPVEFVPVRFTSWMGGDRDGNPNVTADITRHVLLLSRWKATDLFLKDIQVLVSELSMVEATPELLALVGEEGAAEPYRYLMKNLRSRLMATQAWLEARLKGEELPKPEGLLTQNEELWEPLYACYQSLQACGMGIIANGDLLDTLRRVKCFGVPLVRIDIRQESTRHTEALGELTRYLGIGDYESWSEADKQAFLIRELNSKRPLLPRNWQPSAETREVLDTCQVPAEAPQGSIAAYVISMAKTPSDVLAVHLLLKEAGIGFAMPVAPLFETLDDLNNANDVMTQLLNIDWYRGLIQGKQMVMIGYSDSAKDAGVMAASWAQYQAQDALIKTCEKAGIELTLFHGRGGSIGRGGAPAHAALLSQPPGSLKGGLRVTEQGEMIRFKYGLPEITVSSLSLYTGAILEANLLPPPEPKESWRRIMDELSVISCDVYRGYVRENKDFVPYFRSATPEQELGKLPLGSRPAKRRPTGGVESLRAIPWIFAWTQNRLMLPAWLGAGTALQKVVEDGKQSELEAMCRDWPFFSTRLGMLEMVFAKADLWLAEYYDQRLVDKALWPLGKELRNLQEEDIKVVLAIANDSHLMADLPWIAESIQLRNIYTDPLNVLQAELLHRSRQAEKEGQEPDPRVEQALMVTIAGIAAGMRNTG

± gives the standard deviation of the averaged measurements. Laboratory Escherichia coli strains with one amino-acid change in an essential protein, pooled on minimal glucose agar with carbenicillin or gentamicin at twice the control MIC (plus kanamycin and chloramphenicol for the plasmids), 48 h. Fold change of barcode share against drug-free plates; higher = less susceptible. Active = above 20 in both replicates (the paper's putatively resistant). '<' = one read or none on drug, '>' = one read or none on a drug-free plate. Shares are relative, so most strains fall below 1 when a few take over. Listed are strains with at least 15 reads on both drug-free plates, and hits; most hits rest on fewer reference reads. Replicate rank correlation about 0.5. Edits are read from barcodes. Where only a bound is given, the exact number is not on record here.

In one data set the target is Escherichia coli (laboratory strain). As to the kind of experiment: barcode share on antibiotic plates over drug-free plates; higher = less susceptible. The note with it: antibiotic: carbenicillin; 2× MIC (3.1 µg/mL). On the procedure:
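A pool of E. coli strains, each edited to carry one amino-acid change in an essential protein, was grown for 48 h on minimal glucose agar with or without antibiotic; strain barcodes were sequenced; mean of two replicates.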
Take B1: the “fold change of barcode share” value amounted to 0.423 ± 0.12.

Consider B2, for which the “fold change of barcode share” value stood at 0.776 ± 0.17.

Consider B3, for which the “fold change of barcode share” value is 0.586 ± 0.025.

As for B4, the “fold change of barcode share” value came to 0.473 ± 0.08.

With B5, the “fold change of barcode share” value was found to be 0.301 ± 0.071.

Regarding B6, the “fold change of barcode share” value is 0.417 ± 0.15.

Still in this data set, the particulars now being: antibiotic: gentamicin; 2× MIC (MIC 0.45 µg/mL).
As to B1, the “fold change of barcode share” value is less than 0.00797.

Consider B2, for which the “fold change of barcode share” value turned out to be 0.0115 ± 0.0065.

With B3, the “fold change of barcode share” value stood at 0.00895 ± 0.0064.

Turning to B4, the “fold change of barcode share” value amounted to 0.00831 ± 0.0058.

Turning to B5, the “fold change of barcode share” value turned out to be 0.00806 ± 0.0011.

For B6, the “fold change of barcode share” value was less than 0.006.

The record behind these values is the supplement of paper PMC11876631.
